The supplement of paper PMC4967469
Lines with a small IC50 respond at low doses; a fit beyond the top or the lowest dose is shown as a bound at that dose. AUC, from the same fit, is the share of area under the viability curve across the 256-fold dose range; the more sensitive the line, the further below 1. For part of these data: Any top dose called inferred is not printed in the source and was worked back from the curve model. For part of these data: Drugs with an entry number were screened twice under separate entries, and the two screens often disagree.

Tests used:
Experiment in all cases: Viability of human cancer cell lines after 72 h of drug (GDSC screen)
Tamoxifen = compound: CC/C(=C(\c1ccccc1)c1ccc(OCCN(C)C)cc1)c1ccccc1 [Tamoxifen]; conditions: top dose 5 µM
Procedure: (§1)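 Human cancer cell lines in 384-well plates, medium with 10% serum, drug for 72 h over a 256-fold dose range (nine 2-fold or five 4-fold steps up to the top dose). Adherent lines were fixed and stained with the nucleic acid dye Syto60, suspension lines read with resazurin; signal relative to control wells, capped at 0 and 100%. One two-parameter sigmoid per drug and line, fitted in a mixed model over all curves with the slope shared within a line.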

Elesclomol = compound: CN(NC(=O)CC(=O)NN(C)C(=S)c1ccccc1)C(=S)c1ccccc1 [Elesclomol]; conditions: top dose 0.2 µM; top dose inferred
Procedure: as §1

Bleomycin = compound: Cc1c(N)nc([C@H](CC(N)=O)NC[C@H](N)C(N)=O)nc1C(=O)N[C@H](C(=O)N[C@H](C)[C@@H](O)[C@H](C)C(=O)N[C@H](C(=O)NCCc1nc(-c2nc(C(=O)NCCC[S+](C)C)cs2)cs1)[C@@H](C)O)[C@@H](OC1OC(CO)C(O)C(O)C1OC1OC(CO)C(O)C(OC(N)=O)C1O)c1cnc[nH]1 [Bleomycin]
Procedure: as §1

Masitinib = compound: Cc1ccc(NC(=O)c2ccc(CN3CCN(C)CC3)cc2)cc1Nc1nc(-c2cccnc2)cs1 [Masitinib]; conditions: top dose 20 µM
Procedure: as §1

BX-912 = compound: O=C(Nc1cccc(Nc2ncc(Br)c(NCCc3cnc[nH]3)n2)c1)N1CCCC1 [BX-912]; conditions: top dose 10.24 µM; top dose inferred
Procedure: as §1

OSI-930 = compound: O=C(Nc1ccc(OC(F)(F)F)cc1)c1sccc1NCc1ccnc2ccccc12 [OSI-930]; conditions: top dose 10.24 µM
Procedure: as §1

VNLG/124 = compound: CCCC(=O)OCc1ccc(OC(=O)/C=C(C)/C=C/C=C(C)/C=C/C2=C(C)CCCC2(C)C)cc1 [VNLG/124]; conditions: top dose 5.12 µM; top dose inferred
Procedure: as §1

NSC-87877 = compound: O=S(=O)(O)c1ccc2cc(N=Nc3cc(S(=O)(=O)O)c4cccnc4c3O)ccc2c1 [NSC-87877]; conditions: top dose 16 µM; top dose inferred
Procedure: as §1

LAQ824 = compound: O=C(/C=C/c1ccc(CN(CCO)CCc2c[nH]c3ccccc23)cc1)NO [LAQ824]; conditions: top dose 1.024 µM; top dose inferred
Procedure: as §1

[1] = top dose 50 µM, screen: GDSC drug entry 1378, top dose inferred
[2] = top dose 64 µM, screen: GDSC drug entry 190

| Cell Line | AUC (Tamoxifen) | IC50 (Tamoxifen) [µM] | AUC (Elesclomol) | IC50 (Elesclomol) [nM] | AUC (Bleomycin; [1]) | IC50 (Bleomycin; [1]) [µM] | AUC (Masitinib) | IC50 (Masitinib) [µM] | AUC (BX-912) | IC50 (BX-912) [nM] | AUC (OSI-930) | IC50 (OSI-930) [µM] | AUC (VNLG/124) | IC50 (VNLG/124) [µM] | AUC (NSC-87877) | IC50 (NSC-87877) [µM] | AUC (LAQ824) | IC50 (LAQ824) [nM] | AUC (Bleomycin; [2]) | IC50 (Bleomycin; [2]) [µM] |
| --- | --- | --- | --- | --- | --- | --- | --- | --- | --- | --- | --- | --- | --- | --- | --- | --- | --- | --- | --- | --- |
| BALL-1 (B-cell leukaemia, suspension) | 0.995 | > 5 | 0.937 | 179 | 0.983 | > 50 | – | – | – | – | – | – | – | – | – | – | – | – | – | – |
| CL-40 (large intestine, adherent) | 0.958 | > 5 | 0.975 | > 200 | 0.602 | 7.18 | – | – | – | – | – | – | – | – | – | – | – | – | – | – |
| CML-T1 (chronic myeloid leukaemia, suspension) | 0.98 | > 5 | 0.641 | 28.5 | 0.532 | 3.76 | – | – | – | – | – | – | – | – | – | – | – | – | – | – |
| COR-L321 (lung, suspension) | 0.972 | > 5 | 0.988 | > 200 | 0.945 | > 50 | 0.901 | > 20 | 0.541 | 829 | 0.972 | > 10.2 | 0.968 | > 5.12 | – | – | – | – | – | – |
| CRO-AP2 (B-cell lymphoma, suspension) | 0.986 | > 5 | 0.463 | 10.1 | 0.494 | 3.01 | – | – | – | – | – | – | – | – | – | – | – | – | – | – |
| IGROV-1 (ovary, adherent) | 0.959 | > 5 | 0.408 | 6.22 | – | – | – | – | – | – | – | – | – | – | – | – | – | – | – | – |
| JEKO-1 (B-cell lymphoma, suspension) | 0.962 | > 5 | 0.576 | 20 | 0.858 | 38.2 | – | – | – | – | – | – | – | – | – | – | – | – | – | – |
| KARPAS-1106P (B-cell lymphoma, suspension) | 0.976 | > 5 | 0.685 | 37 | 0.857 | 29.9 | – | – | – | – | – | – | – | – | – | – | – | – | – | – |
| KMS-11 (myeloma, suspension) | 0.97 | > 5 | 0.934 | > 200 | 0.951 | > 50 | 0.91 | > 20 | 0.929 | > 10200 | 0.982 | > 10.2 | 0.975 | > 5.12 | – | – | – | – | – | – |
| KNS-62 (lung squamous cell carcinoma, adherent) | 0.904 | > 5 | 0.457 | 9.03 | 0.643 | 9.31 | – | – | – | – | – | – | – | – | – | – | – | – | – | – |
| MEL-HO (melanoma, adherent) | 0.95 | > 5 | 0.888 | > 200 | 0.758 | 17.5 | – | – | – | – | – | – | – | – | – | – | – | – | – | – |
| MHH-CALL-2 (B-cell leukaemia, suspension) | 0.985 | > 5 | 0.97 | > 200 | 0.756 | 13.3 | – | – | – | – | – | – | – | – | – | – | – | – | – | – |
| MOLM-16 (acute myeloid leukaemia, suspension) | 0.968 | > 5 | 0.38 | 6.11 | 0.843 | 29.4 | – | – | – | – | – | – | – | – | – | – | – | – | – | – |
| MOLT-13 (T-cell lymphoblastic leukaemia, suspension) | 0.962 | > 5 | 0.987 | > 200 | 0.791 | 19.5 | 0.679 | 3.69 | 0.558 | 904 | 0.916 | > 10.2 | 0.927 | > 5.12 | – | – | – | – | – | – |
| MOLT-16 (T-cell lymphoblastic leukaemia, suspension) | 0.905 | 4.32 | 0.252 | 2.92 | 0.219 | 0.592 | – | – | – | – | – | – | – | – | – | – | – | – | – | – |
| NCI-H146 (small cell lung carcinoma, suspension) | 0.991 | > 5 | 0.839 | 98.1 | 0.981 | > 50 | – | – | – | – | – | – | – | – | – | – | – | – | – | – |
| NCI-H835 (lung carcinoid, suspension) | 0.983 | > 5 | 0.842 | 130 | 0.982 | > 50 | – | – | – | – | – | – | – | – | – | – | – | – | – | – |
| NCI-H1105 (small cell lung carcinoma, suspension) | 0.993 | > 5 | 0.971 | > 200 | 0.88 | 36.4 | – | – | – | – | – | – | – | – | – | – | – | – | – | – |
| NCI-H1341 (small cell lung carcinoma, suspension) | 0.97 | > 5 | 0.638 | 28.2 | 0.936 | > 50 | – | – | – | – | – | – | – | – | – | – | – | – | – | – |
| OACM5-1 (oesophagus, semi-adherent) | 0.984 | > 5 | 0.938 | > 200 | 0.966 | > 50 | 0.855 | 19.2 | 0.559 | 944 | 0.986 | > 10.2 | 0.97 | > 5.12 | – | – | – | – | – | – |
| PL18 (pancreas, adherent) | 0.987 | > 5 | – | – | – | – | 0.928 | > 20 | 0.982 | > 10200 | 0.962 | > 10.2 | 0.988 | > 5.12 | 0.988 | > 16 | 0.582 | 107 | 0.318 | 1.24 |
| RCH-ACV (B-cell leukaemia, suspension) | 0.99 | > 5 | 0.842 | 105 | 0.551 | 4.19 | – | – | – | – | – | – | – | – | – | – | – | – | – | – |
| RD (rhabdomyosarcoma, adherent) | 0.967 | > 5 | – | – | 0.799 | 26.6 | 0.916 | > 20 | 0.917 | > 10200 | 0.985 | > 10.2 | 0.972 | > 5.12 | 0.976 | > 16 | 0.455 | 47.6 | 0.786 | 30.5 |
| RERF-GC-1B (stomach, adherent) | 0.964 | > 5 | – | – | 0.659 | 9.13 | 0.825 | 13.9 | 0.781 | 4750 | 0.961 | > 10.2 | 0.972 | > 5.12 | 0.985 | > 16 | 0.367 | 26.3 | 0.743 | 21.9 |
| RH-18 (rhabdomyosarcoma, adherent) | 0.959 | > 5 | 0.777 | 92.7 | 0.807 | 30.1 | – | – | 0.815 | 6680 | – | – | – | – | – | – | – | – | – | – |
| RT-112 (bladder, adherent) | 0.983 | > 5 | – | – | 0.552 | 4.39 | 0.932 | > 20 | 0.721 | 2860 | 0.985 | > 10.2 | 0.984 | > 5.12 | 0.981 | > 16 | 0.233 | 10 | 0.308 | 1.11 |
